Assay results as given in PubChem BioAssay AID1508642 (National Center for Advancing Translational Sciences (NCATS), 2021).
The campaign covered roughly 43,000 compounds. About 200 (0.47%) were called active. The shares of active, inactive and inconclusive entries below differ from those in the screen. The call rests on the fitted dose curve; in most records, active means well fitted cell-killing curve with a large enough effect; inconclusive means small, poorly fitted or top-dose-only effect, or effect the other way; inactive means flat fitted curve, though single readings scatter. Potencies beside an inconclusive call are fits to weak or partial responses and may not hold up.

assay: Cell viability qHTS assay in S16 Pmp22-F2sN cells; conditions: S16 Pmp22-F2sN Schwann cells (luciferase reporters placed in the Pmp22 gene) viability, CellTiter-Glo, 24 h; series mostly up to 57.5 µM; further: nearly all actives have a fitted effect of over 65% in size
In short: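 S16 Schwann cells carrying the Pmp22-F2sN reporter, seeded in 1536-well format, were exposed to library compounds for 24 h at 37C. Viability was read as CellTiter-Glo luminescence after 15 min at room temperature.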
Potency means the concentration at half of the fitted maximal effect; tags describe the fitted curve by direction and shape.

| SMILES | Potency |
| --- | --- |
| CCOC(=O)Cn1c(=O)oc2cc(S(=O)(=O)N3CCN(c4ccc(Cl)cc4)CC3)ccc21 | inconclusive: 2.82 µM [rising, partial curve, poor fit] |
| O=C(Nc1ccc(C(F)(F)F)cc1)C1CCC(CNS(=O)(=O)c2cccc3nsnc23)CC1 (centres undefined) | inconclusive: 6.31 µM [cytotoxic, full curve, poor fit] |
| CCc1c(C)c2ccc3c(c2oc1=O)CN(Cc1ccccc1)CO3 | inconclusive: 12.6 µM [cytotoxic, partial curve, poor fit] |
| O=c1cc(CN2CCN(S(=O)(=O)c3ccc(Cl)cc3)CC2)nc2sc(-c3ccccc3F)nn12 | inconclusive: 2 µM [cytotoxic, full curve] |
| O=S(=O)(NCCc1ccccc1)c1ccc(N2CCCCS2(=O)=O)cc1 | inconclusive: 39.8 µM [cytotoxic, partial curve, poor fit] |
| Cc1ccc(N2C(=O)CS(=O)(=O)C23C(=O)N(Cc2cccc(F)c2)c2ccccc23)cc1Cl (centres undefined) | inconclusive: 12.6 µM [rising, partial curve, poor fit] |
| COc1ccc(Nc2c(-c3cc(Br)ccc3O)nc3ncccn23)cc1OC | inconclusive: 39.8 µM [cytotoxic, partial curve, poor fit] |
| Cc1ccc(-c2noc(CNC(=O)c3ccc(C(C)(C)C)cc3)n2)cc1 | inconclusive: 28.2 µM [rising, partial curve, poor fit] |
| COc1ccc(N2CCN(c3cc(C)nc4nc(-c5ccc(C)cc5)nn34)CC2)cc1 | inactive |
| O=C(Cn1c(=O)n(Cc2ccco2)c(=O)c2oc3ccccc3c21)Nc1ccc(F)cc1F | inactive |
| COc1cccc(NC(=O)Nc2cc(-c3cn4cccnc4n3)ccc2C)c1 | inactive |
| O=C(Nc1cccc(Cl)c1)c1c(NC(=O)C(F)(F)F)sc2c1CCCC2 | inconclusive: 14.1 µM [cytotoxic, partial curve] |
| Cc1cccc(N2CCN(S(=O)(=O)c3ccc4c(c3)CCCN4C(=O)C3CCC3)CC2)c1C | inactive |
| COc1ccc(CCNCc2c(C(=O)O)c(C)n(Cc3ccccc3C)c2C)c(OC)c1 | inactive |
| CSc1ccc(CCNc2ncnc3onc(C)c23)cc1 | inconclusive: 1.58 µM [cytotoxic, full curve, poor fit] |
| Cc1cccc2nc(-c3cccnc3)c(Nc3ccc(C(C)C)cc3)n12 | inconclusive: 39.8 µM [cytotoxic, single point] |
| COc1ccc(OC)c(C2CC(=O)c3c([nH]c(C(=O)OC4CCC(C)CC4)c3C)C2)c1 (centres undefined) | inconclusive: 31.6 µM [cytotoxic, partial curve, poor fit] |
| CN1CCN(CCCNC(=O)Cn2c(-c3cccs3)cc3ccccc32)CC1 | inactive |
| CCOC(=O)c1noc2ncnc(N(CCC(=O)OC)c3ccccc3)c12 | inconclusive: 39.8 µM [cytotoxic, single point] |
| COc1ccc(S(=O)(=O)c2cn(C)c3cc(N4CCCCC4)c(F)cc3c2=O)cc1 | inconclusive: 39.8 µM [cytotoxic, single point] |
| COCCn1c(-c2ccccc2)c(C)n2c3c(=O)n(C)c(=O)n(C)c3nc12 | inconclusive: 39.8 µM [cytotoxic, partial curve, poor fit] |
| CCc1ccc(C2=CC(c3cccc(C)c3)n3c(nc4ccccc43)N2)cc1 (centres undefined) | inconclusive: 11.2 µM [cytotoxic, partial curve] |

| SMILES | Potency |
| --- | --- |
| CCc1cccc(C)c1NC(=O)c1cc(S(=O)(=O)N(C)Cc2ccccc2)ccc1F | inconclusive: 39.8 µM [cytotoxic, single point] |
| Cc1ccc(-n2ncc3c(N4CCCCC4)ncnc32)cc1Cl | inactive |
| CCCc1cnc2c(c1SCc1cccc(C)c1)c(=O)n(C)c(=O)n2C | inactive |
| COc1ccc(-n2c(-c3ccccc3F)nc3c(cnn3-c3ccc(C)cc3)c2=O)cc1 | inconclusive: 39.8 µM [cytotoxic, single point] |
| Cc1cc(C)cc(NC(=O)c2nnn(Cc3cccc(Br)c3)c2N)c1 | inactive |
| Cc1cccc(NC(=O)Cn2c(=O)n(CCc3ccccc3)c(=O)c3ccccc32)c1 | inactive |
| COc1ccc(C(=O)CSc2nc3cc(C(=O)NC4CCCC4)ccc3c(=O)n2CC2CCCO2)cc1 (centres undefined) | inconclusive: 1 µM [cytotoxic, full curve, poor fit] |
| CCCCSCCCNC(=O)C1CCN(Cc2nc(-c3ccc(CC)cc3)oc2C)CC1 | inconclusive: 39.8 µM [cytotoxic, single point] |
| CCOC(=O)c1c(C)[nH]c(C)c1S(=O)(=O)N1CCC(C(=O)NCc2ccc(F)cc2)CC1 | inconclusive: 39.8 µM [cytotoxic, single point] |
| Cc1cc(-c2ccc(S(=O)(=O)Nc3cccc(C)c3C)s2)on1 | inconclusive: 3.55 µM [cytotoxic, full curve, poor fit] |
| COc1cc(OC)c(NC(=O)NCCn2nnc3cc(S(=O)(=O)N(C)C)ccc32)cc1Cl | inconclusive: 6.31 µM [rising, partial curve, poor fit] |
| COc1ccc(-c2nn3c(=O)cc(CN4CCN(C(=O)Nc5cc(C)ccc5C)CC4)nc3s2)cc1 | inconclusive: 2.51 µM [cytotoxic, partial curve, poor fit] |
| CC(C)(C)C1CCc2nc(NC(=O)c3cccc(Cl)c3)sc2C1 (centres undefined) | inconclusive: 39.8 µM [cytotoxic, single point] |
| COC(=O)c1ccc(OCC2c3cc(OC)c(OC)cc3CCN2C(=O)c2ccc(OC)cc2)cc1 (centres undefined) | inactive |
| Cn1nnnc1SCCCNCc1cc(Br)ccc1OCc1ccccc1 | inconclusive: 28.2 µM [cytotoxic, single point] |
| CS(=O)(=O)c1ncc(Cl)c(C(=O)N(Cc2ccc(Cl)cc2)Cc2ccco2)n1 | active: 4.47 µM |
| COc1cc(C(=O)Nc2sc3c(c2C#N)CCCC3)c(Br)c(OC)c1OC | inconclusive: 10 µM [cytotoxic, partial curve] |
| CCc1nnc(NC(=O)CSc2nccn2Cc2ccccc2)s1 | inactive |
| O=C(Cn1c(-c2cccs2)cc2ccccc21)NCCCN1CCN(c2cccc(Cl)c2)CC1 | inconclusive: 39.8 µM [cytotoxic, single point] |
| CCN1CCN(C(=O)Cn2c(-c3cccs3)cc3cc(Cl)ccc32)CC1 | inconclusive: 39.8 µM [cytotoxic, single point] |
| CCOC(=O)c1cc2c(=O)n3ccccc3nc2n(CC(C)C)c1=NC(=O)C(C)(C)Oc1ccc(Cl)cc1 | inactive |
| Cc1cc(-n2c(SCc3ccccc3F)nc3[nH]ncc3c2=O)ccc1Cl | inconclusive: 28.2 µM [cytotoxic, single point] |

| SMILES | Potency |
| --- | --- |
| Cc1cc(Cl)ccc1NC(=O)C1CCCN1S(=O)(=O)c1ccc2c(c1)CCCC(=O)N2 (centres undefined) | inconclusive: 31.6 µM [cytotoxic, single point] |
| CC1CCCCN1Cc1c(O)ccc2c(=O)c(-c3ccc(Cl)cc3)coc12 (centres undefined) | inconclusive: 0.0178 µM [rising, full curve, poor fit] |
| COc1ccc(C2CC(=O)Nc3cc4c(cc32)OCO4)c(OC)c1 (centres undefined) | inactive |
| Cc1ccc(CCNC(=O)C(C)n2nc(C)c3c(C)n(-c4ccc(C)cc4)nc3c2=O)cc1 (centres undefined) | inconclusive: 28.2 µM [cytotoxic, single point] |
| CC(=O)c1ccc(N2CCN(C(=O)Nc3cn(CC(C)C)c(=O)c4ccccc34)CC2)cc1 | inactive |
| COc1cccc(N2CCN(C(=O)c3nc(-c4ccc(Cl)cc4)n4c3CCCCC4)CC2)c1 | inconclusive: 39.8 µM [cytotoxic, single point] |
| CCOC(=O)c1cc2c(=O)n3ccccc3nc2n(CC2CCCO2)c1=NC(=O)c1cc(C)cc(C)c1 (centres undefined) | inconclusive: 2.51 µM [cytotoxic, full curve] |
| Cc1[nH]c2ccccc2c1C1(O)C(=O)N(Cc2ccc(Cl)cc2)c2ccccc21 (centres undefined) | inconclusive: 6.31 µM [cytotoxic, full curve] |
| COc1ccc(CC(=O)Nc2sc3c(c2C(=O)Nc2ccc(C)cc2)CCCCC3)cc1 | inactive |
| Cc1cc(Nc2cccc(C(F)(F)F)c2)nc2ccc(NC(=O)c3cncc(Br)c3)cc12 | inconclusive: 39.8 µM [cytotoxic, single point] |
| Cc1ccc(CN(C(=O)c2ccc([N+](=O)[O-])cc2)c2ccccn2)cc1 | inactive |
| CCOC(=O)c1noc2nc(C)n(CC(=O)Nc3ccc(Br)cc3C)c(=O)c12 | inconclusive: 0.224 µM [rising, full curve, poor fit] |
| CC(C(=O)NCc1ccc(Cl)cc1)n1ccc2cc(S(=O)(=O)N3CCCC3)ccc21 (centres undefined) | inconclusive: 39.8 µM [cytotoxic, single point] |
| COc1ccc(NC(=O)CSc2n[nH]c(-c3ccccc3)n2)cc1Cl | inactive |
| CCCn1ccc2c(OCC(=O)Nc3ccc(C(F)(F)F)cc3)cccc2c1=O | inactive |
| Cc1ccc(NC(=O)NC(C)c2c(-n3cccc3)sc(C)c2C)cc1F (centres undefined) | inconclusive: 31.6 µM [cytotoxic, single point] |
| Cc1ccc2c(C)c(C(=O)NCC(c3ccc(Cl)cc3)N3CCOCC3)oc2c1 (centres undefined) | inconclusive: 22.4 µM [cytotoxic, partial curve, poor fit] |
| Cc1ccc(-n2c(=O)[nH]c3cc(C(=O)NCCc4ccccc4)ccc3c2=O)cc1 | inconclusive: 22.4 µM [cytotoxic, single point] |
| COC(=O)c1ccccc1NC(=O)c1oc2ccc3c(c2c1C)C(=O)CC(C)(C)O3 | inactive |
| CCCc1nn2c(=O)cc(COC(=O)C3CCCCC3)nc2s1 | inconclusive: 7.08 µM [cytotoxic, single point] |
